In paper PMC12624777, “Degradation of CaMKII is stimulated by its active conformation” (The Journal of Biological Chemistry, 2025):

B1: SNAP::dCaMKII WT (Drosophila CaMKII, PC isoform, with an N-terminal SNAP-tag) (enzyme)
chain: MAAPAACTRFSDNYDIKEELGKGAFSIVKRCVQKSTGFEFAAKIINTKKLTARDFQKLEREARICRKLHHPNIVRLHDSIQEENYHYLVFDLVTGGELFEDIVAREFYSEADASHCIQQILESVNHCHQNGVVHRDLKPENLLLASKAKGAAVKLADFGLAIEVQGDHQAWFGFAGTPGYLSPEVLKKEPYGKSVDIWACGVILYILLVGYPPFWDEDQHRLYSQIKAGAYDYPSPEWDTVTPEAKNLINQMLTVNPNKRITAAEALKHPWICQRERVASVVHRQETVDCLKK[skipping about 20 residues]SRSMITKKGEGSQVKESTDSSSTTLEDDDIKAARRQEIIKITEQLIEAINSGDFDGYTKICDPHLTAFEPEALGNLVEGIDFHKFYFENVLGKNCKAINTTILNPHVHLLGEEAACIAYVRLTQYIDKQGHAHTHQSEETRVWHKRDNKWQNVHFHRSASAKISGATTFDFIPQK
modifications: TMR-Star (fluorescent SNAP-ligand) on the SNAP-tag
notes: numbers count on: the PC isoform of 490 aa; Sizes predominantly as a dodecamer by gel filtration; also called WT dCaMKII; fly CaMKII; source: HEK293T, transfected, in cleared lysate; copies: 12
B2: SNAP::dCaMKII F400A (Drosophila CaMKII hub mutant with an N-terminal SNAP-tag) (enzyme)
chain: MAAPAACTRFSDNYDIKEELGKGAFSIVKRCVQKSTGFEFAAKIINTKKLTARDFQKLEREARICRKLHHPNIVRLHDSIQEENYHYLVFDLVTGGELFEDIVAREFYSEADASHCIQQILESVNHCHQNGVVHRDLKPENLLLASKAKGAAVKLADFGLAIEVQGDHQAWFGFAGTPGYLSPEVLKKEPYGKSVDIWACGVILYILLVGYPPFWDEDQHRLYSQIKAGAYDYPSPEWDTVTPEAKNLINQMLTVNPNKRITAAEALKHPWICQRERVASVVHRQETVDCLKK[skipping about 20 residues]SRSMITKKGEGSQVKESTDSSSTTLEDDDIKAARRQEIIKITEQLIEAINSGDFDGYTKICDPHLTAFEPEALGNLVEGIDFHKAYFENVLGKNCKAINTTILNPHVHLLGEEAACIAYVRLTQYIDKQGHAHTHQSEETRVWHKRDNKWQNVHFHRSASAKISGATTFDFIPQK
modifications: TMR-Star (fluorescent SNAP-ligand) on the SNAP-tag
notes: numbers count on: the PC isoform of 490 aa; Essentially all dimer by gel filtration of crude extract; also called fly hub mutant; dCaMKII hub mutant; source: HEK293T, transfected, in cleared lysate

Biological target: the molecule itself
Assay: SEC; analytical gel filtration, Superose 6 10/300 GL, 50 mM Tris pH 7.5, 150 mM NaCl, 1 mM TCEP, 0.4 ml/min; cleared HEK293T lysate injected without additional purification; detected by TMR-Star fluorescence; size estimated from Kav against MW standards

Row | Protein | stoichiometry N
1 | B1 | 12
2 | B2 | 2
